# Measurements: patent publication US5032575A, “Method for enhancing healing of corneal endothelial wounds” (Eye Research Institute of Retina Foundation, Inc., priority 1989, dated 1991)
# How the values were obtained:
# [1] = tested on: Corneal endothelial cells; test: f-actin labelling with rhodamine labelled phallacidin in cultured corneal endothelial cells; settings: 1 week culture; control shows circumferential bands of f-actin
# Description: Widely separated cables of somewhat smaller diameter were also seen within the cytoplasm of these cells.
# [2] = tested on: Corneal endothelial cells; test: Transmission electron microscopy of pharmacologically modulated endothelial phenotypes; settings: cultured cells
Molecule,f-actin staining pattern [1],ultrastructure by transmission electron microscopy [2]
"CCCCC[C@H](O)/C=C/[C@H]1[C@H](O)CC(=O)[C@@H]1C/C=C\CCCC(=O)O [PGE2, prostaglandin E2]",circumferential actin bands and discrete cytoplasmic fibers were apparent,–
COc1ccc2c(c1)c(CC(=O)O)c(C)n2C(=O)c1ccc(Cl)cc1 [indomethacin],–,extensive cytoplasmic overlap and close ajunctional apposition of the membranes of adjacent cells
epidermal growth factor [EGF],actin fibers throughout the cytoplasm running roughly parallel to the long axis of the cell,–
